Data on five molecules can be found in publication PMC8582154.

Amino acid sequences for entries named in this document (tags omitted).
UniProt Q96GD4: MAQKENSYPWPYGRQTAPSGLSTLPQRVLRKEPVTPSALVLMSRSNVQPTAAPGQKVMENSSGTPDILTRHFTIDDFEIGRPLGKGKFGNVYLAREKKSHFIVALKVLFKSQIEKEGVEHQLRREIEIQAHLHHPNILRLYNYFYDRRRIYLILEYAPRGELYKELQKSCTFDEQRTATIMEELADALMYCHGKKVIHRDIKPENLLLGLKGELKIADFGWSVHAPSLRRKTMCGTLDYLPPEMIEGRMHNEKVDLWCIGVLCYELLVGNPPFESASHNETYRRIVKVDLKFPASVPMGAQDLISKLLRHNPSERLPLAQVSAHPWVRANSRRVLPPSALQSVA

No constants are given. Whether binding was seen depends on the method and setting. In cells and extracts the contact can be indirect. Some binding calls cover weakened binding; strength is not graded here. For some assays here: Where a sequence is shown, tags or fusion partners need not be part of it.

Experiment [1] has as its target T1, Flag-USP3 (ubiquitin specific peptidase 3) (human) (UniProt Q9Y6I4).
T1 sequence: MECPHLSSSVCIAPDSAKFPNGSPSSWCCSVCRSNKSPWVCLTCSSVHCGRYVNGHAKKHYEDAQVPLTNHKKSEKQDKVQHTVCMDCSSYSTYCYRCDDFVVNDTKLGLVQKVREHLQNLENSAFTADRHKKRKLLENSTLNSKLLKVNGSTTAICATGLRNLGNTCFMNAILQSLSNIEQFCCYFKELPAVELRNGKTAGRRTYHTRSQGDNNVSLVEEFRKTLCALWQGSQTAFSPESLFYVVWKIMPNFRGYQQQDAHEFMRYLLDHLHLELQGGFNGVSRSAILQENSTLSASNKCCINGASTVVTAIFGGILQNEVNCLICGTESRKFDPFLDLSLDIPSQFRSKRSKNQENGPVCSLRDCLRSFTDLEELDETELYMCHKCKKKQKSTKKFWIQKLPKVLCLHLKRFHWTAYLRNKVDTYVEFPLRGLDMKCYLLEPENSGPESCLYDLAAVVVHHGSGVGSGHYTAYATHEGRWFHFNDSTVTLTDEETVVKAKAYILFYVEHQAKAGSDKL
The experiment is described as follows: co-IP; ECa109 cells with exogenous Flag-USP3 and HA-Aurora A, RIPA lysate, anti-Flag beads overnight at 4 °C, western blot (Fig. 5B). For orientation: In western blotting, separated proteins are transferred to a membrane and probed.

The target in a further experiment is T2, HA-Aurora A (UniProt O14965).
T2 sequence: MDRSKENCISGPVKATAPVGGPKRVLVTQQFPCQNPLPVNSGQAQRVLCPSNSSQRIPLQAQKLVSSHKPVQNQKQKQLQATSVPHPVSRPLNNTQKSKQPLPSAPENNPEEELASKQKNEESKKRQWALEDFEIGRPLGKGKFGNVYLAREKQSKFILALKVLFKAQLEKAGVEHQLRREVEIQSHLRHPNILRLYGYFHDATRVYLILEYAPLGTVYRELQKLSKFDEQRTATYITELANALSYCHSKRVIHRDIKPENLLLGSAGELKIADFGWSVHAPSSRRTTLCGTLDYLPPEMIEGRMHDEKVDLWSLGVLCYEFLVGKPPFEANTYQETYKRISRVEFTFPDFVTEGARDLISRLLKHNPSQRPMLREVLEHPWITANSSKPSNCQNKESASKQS
The experiment can be described thus: co-IP; ECa109 cells with exogenous Flag-USP3 and HA-Aurora A, RIPA lysate, immunoprecipitation of Aurora A (anti-HA beads) overnight at 4 °C, western blot (Fig. 5C).

Another experiment has as its target T3, USP3, endogenous (human) (UniProt Q9Y6I4).
T3 sequence: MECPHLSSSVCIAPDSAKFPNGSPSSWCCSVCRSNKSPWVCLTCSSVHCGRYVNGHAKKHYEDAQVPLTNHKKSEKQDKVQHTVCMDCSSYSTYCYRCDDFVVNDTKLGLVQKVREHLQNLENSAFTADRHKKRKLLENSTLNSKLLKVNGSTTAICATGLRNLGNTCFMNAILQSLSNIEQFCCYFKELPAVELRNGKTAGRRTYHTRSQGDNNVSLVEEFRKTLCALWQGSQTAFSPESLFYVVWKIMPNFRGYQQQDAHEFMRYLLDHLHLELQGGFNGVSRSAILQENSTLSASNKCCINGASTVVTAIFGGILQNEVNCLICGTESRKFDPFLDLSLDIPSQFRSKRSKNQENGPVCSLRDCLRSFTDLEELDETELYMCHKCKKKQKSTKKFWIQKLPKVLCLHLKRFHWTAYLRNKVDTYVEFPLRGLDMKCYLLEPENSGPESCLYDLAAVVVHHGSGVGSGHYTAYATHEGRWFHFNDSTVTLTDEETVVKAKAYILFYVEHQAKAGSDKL
The experiment is described as follows: co-IP; endogenous co-immunoprecipitation of USP3 and Aurora A (Fig. 5D and E).

Experiment [2] deals with T1, Flag-USP3 (ubiquitin specific peptidase 3) (human). The experiment can be described thus: co-IP; co-immunoprecipitation of Aurora A K143R and USP3 (Fig. 5F); which protein was precipitated is not told.

As for “Aurora B (from UniProt Q96GD4 1-344) (enzyme)”, in experiment [1], the binding result was “no binding”.

B1: Flag-USP3 (ubiquitin specific peptidase 3) (enzyme, UniProt Q9Y6I4 1-520)
chain: MECPHLSSSVCIAPDSAKFPNGSPSSWCCSVCRSNKSPWVCLTCSSVHCGRYVNGHAKKHYEDAQVPLTNHKKSEKQDKVQHTVCMDCSSYSTYCYRCDDFVVNDTKLGLVQKVREHLQNLENSAFTADRHKKRKLLENSTLNSKLLKVNGSTTAICATGLRNLGNTCFMNAILQSLSNIEQFCCYFKELPAVELRNGKTAGRRTYHTRSQGDNNVSLVEEFRKTLCALWQGSQTAFSPESLFYVVWKIMPNFRGYQQQDAHEFMRYLLDHLHLELQGGFNGVSRSAILQENSTLSASNKCCINGASTVVTAIFGGILQNEVNCLICGTESRKFDPFLDLSLDIPSQFRSKRSKNQENGPVCSLRDCLRSFTDLEELDETELYMCHKCKKKQKSTKKFWIQKLPKVLCLHLKRFHWTAYLRNKVDTYVEFPLRGLDMKCYLLEPENSGPESCLYDLAAVVVHHGSGVGSGHYTAYATHEGRWFHFNDSTVTLTDEETVVKAKAYILFYVEHQAKAGSDKL
As to B1, the binding entry in the experiment with HA-Aurora A was “binds”.

B2: HA-Aurora A (enzyme, UniProt O14965 1-403)
chain: MDRSKENCISGPVKATAPVGGPKRVLVTQQFPCQNPLPVNSGQAQRVLCPSNSSQRIPLQAQKLVSSHKPVQNQKQKQLQATSVPHPVSRPLNNTQKSKQPLPSAPENNPEEELASKQKNEESKKRQWALEDFEIGRPLGKGKFGNVYLAREKQSKFILALKVLFKAQLEKAGVEHQLRREVEIQSHLRHPNILRLYGYFHDATRVYLILEYAPLGTVYRELQKLSKFDEQRTATYITELANALSYCHSKRVIHRDIKPENLLLGSAGELKIADFGWSVHAPSSRRTTLCGTLDYLPPEMIEGRMHDEKVDLWSLGVLCYEFLVGKPPFEANTYQETYKRISRVEFTFPDFVTEGARDLISRLLKHNPSQRPMLREVLEHPWITANSSKPSNCQNKESASKQS
On to B2, for which the binding result in experiment [1] is listed as “binds”.

B3: Aurora A, endogenous (enzyme, UniProt O14965 1-403)
chain: MDRSKENCISGPVKATAPVGGPKRVLVTQQFPCQNPLPVNSGQAQRVLCPSNSSQRIPLQAQKLVSSHKPVQNQKQKQLQATSVPHPVSRPLNNTQKSKQPLPSAPENNPEEELASKQKNEESKKRQWALEDFEIGRPLGKGKFGNVYLAREKQSKFILALKVLFKAQLEKAGVEHQLRREVEIQSHLRHPNILRLYGYFHDATRVYLILEYAPLGTVYRELQKLSKFDEQRTATYITELANALSYCHSKRVIHRDIKPENLLLGSAGELKIADFGWSVHAPSSRRTTLCGTLDYLPPEMIEGRMHDEKVDLWSLGVLCYEFLVGKPPFEANTYQETYKRISRVEFTFPDFVTEGARDLISRLLKHNPSQRPMLREVLEHPWITANSSKPSNCQNKESASKQS
As to B3, the binding entry in the experiment with USP3, endogenous (human) was “binds”.

B4: Aurora A K143R (enzyme, UniProt O14965 1-403)
chain: MDRSKENCISGPVKATAPVGGPKRVLVTQQFPCQNPLPVNSGQAQRVLCPSNSSQRIPLQAQKLVSSHKPVQNQKQKQLQATSVPHPVSRPLNNTQKSKQPLPSAPENNPEEELASKQKNEESKKRQWALEDFEIGRPLGKGRFGNVYLAREKQSKFILALKVLFKAQLEKAGVEHQLRREVEIQSHLRHPNILRLYGYFHDATRVYLILEYAPLGTVYRELQKLSKFDEQRTATYITELANALSYCHSKRVIHRDIKPENLLLGSAGELKIADFGWSVHAPSSRRTTLCGTLDYLPPEMIEGRMHDEKVDLWSLGVLCYEFLVGKPPFEANTYQETYKRISRVEFTFPDFVTEGARDLISRLLKHNPSQRPMLREVLEHPWITANSSKPSNCQNKESASKQS
Consider B4, for which the binding entry in experiment [2] was “binds”.
